Assay results taken from article PMC4336329 (PLoS ONE, 2015).
Hit rate of the full screen: of about 310,000 compounds, about 2,200 (0.71%) showed an effect of 50% or more. The effect is printed as a negative number. The list shows a part of the results.

biological target: human ether-à-go-go-related gene (hERG) potassium channel (human, UniProt Q12809); assay: primary screen, population patch clamp on CHO cells stably expressing hERG
Sequence (Q12809 whole entry, looked up): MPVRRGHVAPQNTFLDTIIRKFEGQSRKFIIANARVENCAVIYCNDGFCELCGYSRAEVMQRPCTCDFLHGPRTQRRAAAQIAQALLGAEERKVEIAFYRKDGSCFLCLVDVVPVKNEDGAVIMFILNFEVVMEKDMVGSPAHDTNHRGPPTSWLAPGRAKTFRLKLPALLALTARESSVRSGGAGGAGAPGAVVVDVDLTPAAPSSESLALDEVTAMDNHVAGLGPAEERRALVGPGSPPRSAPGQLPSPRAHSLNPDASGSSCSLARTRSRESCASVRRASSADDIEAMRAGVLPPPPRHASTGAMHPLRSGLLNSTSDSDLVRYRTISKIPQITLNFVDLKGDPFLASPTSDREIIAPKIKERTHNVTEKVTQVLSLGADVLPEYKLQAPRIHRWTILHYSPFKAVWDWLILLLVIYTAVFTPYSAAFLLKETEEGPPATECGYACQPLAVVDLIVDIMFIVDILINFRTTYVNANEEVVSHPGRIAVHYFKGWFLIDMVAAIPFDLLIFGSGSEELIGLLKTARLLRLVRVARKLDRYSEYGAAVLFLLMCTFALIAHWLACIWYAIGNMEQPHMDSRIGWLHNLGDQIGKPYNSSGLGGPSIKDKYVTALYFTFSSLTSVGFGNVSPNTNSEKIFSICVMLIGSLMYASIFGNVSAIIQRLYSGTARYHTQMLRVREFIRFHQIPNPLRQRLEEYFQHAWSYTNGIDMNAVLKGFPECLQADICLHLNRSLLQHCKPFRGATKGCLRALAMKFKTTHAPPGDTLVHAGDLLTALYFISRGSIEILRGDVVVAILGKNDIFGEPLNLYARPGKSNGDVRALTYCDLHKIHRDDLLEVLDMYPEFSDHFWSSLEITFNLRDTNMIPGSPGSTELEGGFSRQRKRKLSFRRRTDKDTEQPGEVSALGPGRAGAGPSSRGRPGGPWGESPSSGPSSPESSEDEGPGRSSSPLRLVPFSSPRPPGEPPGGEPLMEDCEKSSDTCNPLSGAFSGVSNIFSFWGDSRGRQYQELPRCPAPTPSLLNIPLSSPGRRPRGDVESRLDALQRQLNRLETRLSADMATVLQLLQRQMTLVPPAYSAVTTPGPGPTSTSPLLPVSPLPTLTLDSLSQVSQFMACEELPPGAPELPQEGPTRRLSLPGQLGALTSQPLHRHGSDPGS

Row | SMILES | hERG current change (%, negative = inhibition) at 1uM [%]
1 | CC(=O)c1cccc(NC(=O)N2C3CCCC2CC(NC(=O)C2CC2)C3)c1 (centres unmarked) | 13.8
2 | CCOC(=O)c1cc2c(=O)n3ccccc3nc2n(Cc2ccco2)c1=NC(=O)c1cccnc1 | 2.18
3 | CN(C)S(=O)(=O)c1ccc(Cl)c(C(=O)Nc2cccc([N+](=O)[O-])c2)c1 | -3.12
4 | COc1cc(C(=O)N(C)CC(=O)Nc2cccc(F)c2)ccc1OCc1ccccc1 | 8.75
5 | C=CCOC(=O)c1cn(CC)c2nc(C)ccc2c1=O | -10.1
6 | CCc1cc(C(c2ccc(F)cc2)N2CCOCC2)c(NC(=O)c2ccccc2)s1 (centres unmarked) | 11.2
7 | C=CCn1c(SCc2ccc(C(=O)NCCO)cc2)nc2ccccc2c1=O | 5.66
8 | CC(C)(C)N(CC#CCC(O)(c1ccccc1)C1CCCC1)CCO (centres unmarked) | 15.6
9 | COc1ccccc1NS(=O)(=O)c1cccc(C(=O)N/N=C/c2ccc(N3CCOCC3)cc2)c1 | -0.405
10 | CN1CCN(C(=O)CSc2ccc(C(F)(F)F)cc2[N+](=O)[O-])CC1 | -9.45
11 | Cc1ccc(S(=O)(=O)N(CC(=O)Nc2cccnc2)c2cccc([N+](=O)[O-])c2)cc1 | -4.38
12 | Cn1cc(/C=N/NC(=O)c2ccc(C#N)cc2F)c2ccccc21 | 12.6
13 | C=CCn1c(N)c(C(=O)NCC2CCCO2)sc1=S (centres unmarked) | 10.9
14 | COc1ccc(CC(=O)N2CCN(c3ccccn3)CC2)cc1OC | 13.4
15 | Nc1cc(=O)[nH]c(=O)n1CC1CC1 | 18.7
16 | COc1ccc(C#Cc2c(-c3ccsc3)oc3ccc(N4CCOCC4)cc23)cc1 | 6.13
17 | COc1ccc(-c2noc(C3CCCN(C(=O)c4cccc(C)c4)C3)n2)cc1 (centres unmarked) | 9.91
18 | COc1cc(Cl)c(C)cc1NC(=O)c1cccc(OC)c1OC | 13.2
19 | O=C(COC(=O)CNC(=O)c1ccccc1)Nc1ccc(Cl)cc1C(F)(F)F | 0.717

Row | SMILES | hERG current change (%, negative = inhibition) at 1uM [%]
20 | CCN1CCN(CCCN(Cc2ccco2)C(=S)Nc2ccc(Cl)cc2)CC1 | -18.6
21 | Fc1ccc(-c2[nH]ncc2-c2nnnn2-c2ccccc2)c(F)c1 | 10.6
22 | COc1cccc(NC(=O)Cc2ccc3ccccc3c2)c1 | 19.3
23 | COC(=O)Cc1ccc(NC(=O)c2ccc(NC(=O)c3ccco3)cc2)cc1 | 12.9
24 | CCN(CC)c1nc2c(c(=O)[nH]c(=O)n2C)n1CCCc1ccccc1 | 9.42
25 | N#CCc1c(C#N)c(N)nc(N2CCN(S(=O)(=O)c3ccccc3)CC2)c1C#N | 3.87
26 | COc1ccc(-n2nc(C(=O)NCC(=O)N3CCC(C(N)=O)CC3)c3ccccc3c2=O)cc1OC | 9.79
27 | CCOC(=O)CN1C(=O)NC2NC(=O)NC21 (centres unmarked) | 13.6
28 | COC(=O)c1[nH]c2cc(C)ccc2c1NC(=O)CN1CCN(C(=O)c2ccco2)CC1 | -9.79
29 | COc1cccc(CNC(=S)Nc2cc(C)cc(C)c2)c1 | 10.7
30 | COc1ccc(CNS(=O)(=O)c2ccc3c(c2)CCN3C(=O)C2CC2)cc1 | 5.86
31 | O=[N+]([O-])c1ccccc1S(=O)(=O)c1ccccc1[N+](=O)[O-] | 13.6
32 | Cn1ncc(N=Cc2ccccc2O)c1C(=O)N1CCOCC1 | 7.67
33 | FC(F)(F)c1ccccc1NC(=S)N1CCCCCC1 | 15.5
34 | O=C(CNC(=O)C1CCCC1)Nc1ccccc1Br | 9.17
35 | Cc1cc(C(=O)NNc2cc(Cl)ccc2Cl)no1 | 10.5
36 | COc1ccc(OC)c(NC(=O)CC2SC(=Nc3ccccc3)N(CCc3ccccn3)C2=O)c1 (centres unmarked) | 3.19
37 | CC(C)C(=O)NC(=S)Nc1c(Cl)ccc2nsnc12 | 4.14
38 | COc1ccccc1-c1cc(C(=O)NCCN2CCOCC2)no1 | 1.11

Row | SMILES | hERG current change (%, negative = inhibition) at 1uM [%]
39 | O=C(O)c1ccc2c(=O)n3c(nc2c1)/C(=C/c1cccc(Cl)c1Cl)CCCC3 | 10.6
40 | CC(NC(=O)COc1ccccc1)C(=O)N1CCN(c2ccccc2)CC1 (centres unmarked) | 11.6
41 | COc1ccc(CCN=C2SCC(=O)N2Cc2ccccc2)cc1OC | 11.9
42 | Cc1ccc(/C=N/NC(=O)c2cccc(S(=O)(=O)Nc3ccccc3Cl)c2)s1 | -0.199
43 | COc1ccc(C2C3=C(CCCC3=O)Nc3nc(C(F)(F)F)nn32)c(OC)c1OC (centres unmarked) | -2.14
44 | CCN(CC(=O)Nc1ccc(NC(C)=O)cc1)C(=O)c1cc2ccccc2oc1=O | 9.24
45 | CC(Oc1ccccc1)C(=O)Nc1ccc(S(=O)(=O)N2CCN(C)CC2)cc1 (centres unmarked) | 8.39
46 | CCN1C(=O)/C(=C/N2CC(C)CC(C)C2)SC1=S (centres unmarked) | -13.1
47 | O=C(Nc1ccc(O)c2c(=O)cc(-c3ccccc3Cl)oc12)c1ccccc1Cl | 4.04
48 | CCCn1c(N2CCN(C(=O)NCc3ccccc3)CC2)nc2ccccc21 | -16.9
49 | CCOc1ccc(C(=O)NNC(=O)CCNC(=O)c2ccco2)cc1OC | 13.8
50 | CCCCn1c(N)c(N(CC)C(=O)c2ccc(N3CCCC3=O)cc2)c(=O)[nH]c1=O | -5.13
51 | Cc1cc(N2C(=O)c3ccc(C(=O)Nc4ccccc4O)cc3C2=O)no1 | 15.8
52 | COc1ccc2[nH]c3c(NCCCN4CCCC4=O)ncnc3c2c1 | 9.41
53 | O=S(=O)(NC(=NC1CCCCC1)c1ccccc1)c1ccc(F)cc1 | -1.84
54 | COc1cccc(OCC(=O)NC2CCCCCC2)c1 | 6.15
55 | Cc1cnc(C(=O)Nc2cc(F)ccc2C)cn1 | 20.6
56 | O=C(COC(=O)Cc1c(Cl)cccc1Cl)Nc1ccc(OC(F)(F)F)cc1 | 10.2
